# Experimental data taken from PMC9911399, “Two distinct binding modes provide the RNA-binding protein RbFox with extraordinary sequence specificity”.
# Positions count from the first letter of the chain named. Some of the results follow.
# B1: CGGACUC (DNA:RNA)
# RNA: GGGAGACCGGAAUUCAGAUUGUCCCGGACUCUUAAAUCCCGUCGUAGCCACCA
# DNA 1: CAATCTGAATTCCGGTCTCCC
# DNA 2: TGGTGGCTACGACGGGATT
# B2: GGCAUCU (DNA:RNA)
# RNA: B1 RNA with C25G, G27C, C29U, U30C, C31U
# DNA 1: CAATCTGAATTCCGGTCTCCC
# DNA 2: TGGTGGCTACGACGGGATT
# B3: GCAAAAG (DNA:RNA)
# RNA: B1 RNA with C25G, G26C, G27A, C29A, U30A, C31G
# DNA 1: CAATCTGAATTCCGGTCTCCC
# DNA 2: TGGTGGCTACGACGGGATT
# B4: UGUUUAC (DNA:RNA)
# RNA: B1 RNA with C25U, G27U, A28U, C29U, U30A
# DNA 1: CAATCTGAATTCCGGTCTCCC
# DNA 2: TGGTGGCTACGACGGGATT
# B5: UCUUAGG (DNA:RNA)
# RNA: GGGAGACCGGAAUUCAGAUUGUCCUCUUAGGUUAAAUCCCGUCGUAGCCACCA
# DNA 1: CAATCTGAATTCCGGTCTCCC
# DNA 2: TGGTGGCTACGACGGGATT
# B6: UGAAGAC (DNA:RNA)
# RNA: B1 RNA with C25U, G27A, C29G, U30A
# DNA 1: CAATCTGAATTCCGGTCTCCC
# DNA 2: TGGTGGCTACGACGGGATT
# B7: UAAACAU (DNA:RNA)
# RNA: B1 RNA with C25U, G26A, G27A, U30A, C31U
# DNA 1: CAATCTGAATTCCGGTCTCCC
# DNA 2: TGGTGGCTACGACGGGATT
# B8: GACCGUG (DNA:RNA)
# RNA: B1 RNA with C25G, G26A, G27C, A28C, C29G, C31G
# DNA 1: CAATCTGAATTCCGGTCTCCC
# DNA 2: TGGTGGCTACGACGGGATT
# B9: UGUGUGG (DNA:RNA)
# RNA: B5 RNA with C26G, U28G, A29U
# DNA 1: CAATCTGAATTCCGGTCTCCC
# DNA 2: TGGTGGCTACGACGGGATT
# B10: UUAGGGC (DNA:RNA)
# RNA: B5 RNA with C26U, U27A, U28G, A29G, G31C
# DNA 1: CAATCTGAATTCCGGTCTCCC
# DNA 2: TGGTGGCTACGACGGGATT
# B11: CUCACCA (DNA:RNA)
# RNA: B1 RNA with G26U, G27C, U30C, C31A
# DNA 1: CAATCTGAATTCCGGTCTCCC
# DNA 2: TGGTGGCTACGACGGGATT
# B12: AGGGCGA (DNA:RNA)
# RNA: B1 RNA with C25A, A28G, U30G, C31A
# DNA 1: CAATCTGAATTCCGGTCTCCC
# DNA 2: TGGTGGCTACGACGGGATT
# B13: AUACAUU (DNA:RNA)
# RNA: B1 RNA with C25A, G26U, G27A, A28C, C29A, C31U
# DNA 1: CAATCTGAATTCCGGTCTCCC
# DNA 2: TGGTGGCTACGACGGGATT
# B14: UGUCUAA (DNA:RNA)
# RNA: B5 RNA with C26G, U28C, A29U, G30A, G31A
# DNA 1: CAATCTGAATTCCGGTCTCCC
# DNA 2: TGGTGGCTACGACGGGATT
# B15: UCCUUUG (DNA:RNA)
# RNA: B5 RNA with U27C, A29U, G30U
# DNA 1: CAATCTGAATTCCGGTCTCCC
# DNA 2: TGGTGGCTACGACGGGATT
# B16: CCACACG (DNA:RNA)
# RNA: B5 RNA with U25C, U27A, U28C, G30C
# DNA 1: CAATCTGAATTCCGGTCTCCC
# DNA 2: TGGTGGCTACGACGGGATT
# B17: UAUUACG (DNA:RNA)
# RNA: B5 RNA with C26A, G30C
# DNA 1: CAATCTGAATTCCGGTCTCCC
# DNA 2: TGGTGGCTACGACGGGATT
# B18: AGUGGCC (DNA:RNA)
# RNA: B1 RNA with C25A, G27U, A28G, C29G, U30C
# DNA 1: CAATCTGAATTCCGGTCTCCC
# DNA 2: TGGTGGCTACGACGGGATT
# B19: ACCCCAU (DNA:RNA)
# RNA: B1 RNA with C25A, G26C, G27C, A28C, U30A, C31U
# DNA 1: CAATCTGAATTCCGGTCTCCC
# DNA 2: TGGTGGCTACGACGGGATT
# B20: CGUGAAA (DNA:RNA)
# RNA: B1 RNA with G27U, A28G, C29A, U30A, C31A
# DNA 1: CAATCTGAATTCCGGTCTCCC
# DNA 2: TGGTGGCTACGACGGGATT
# B21: GAGGAGG (DNA:RNA)
# RNA: B5 RNA with U25G, C26A, U27G, U28G
# DNA 1: CAATCTGAATTCCGGTCTCCC
# DNA 2: TGGTGGCTACGACGGGATT
# B22: UGUCCGU (DNA:RNA)
# RNA: B5 RNA with C26G, U28C, A29C, G31U
# DNA 1: CAATCTGAATTCCGGTCTCCC
# DNA 2: TGGTGGCTACGACGGGATT
# B23: CGCAGAA (DNA:RNA)
# RNA: B1 RNA with G27C, C29G, U30A, C31A
# DNA 1: CAATCTGAATTCCGGTCTCCC
# DNA 2: TGGTGGCTACGACGGGATT
# B24: CCAGCUU (DNA:RNA)
# RNA: B1 RNA with G26C, G27A, A28G, C31U
# DNA 1: CAATCTGAATTCCGGTCTCCC
# DNA 2: TGGTGGCTACGACGGGATT
# B25: CUCGCCA (DNA:RNA)
# RNA: B1 RNA with G26U, G27C, A28G, U30C, C31A
# DNA 1: CAATCTGAATTCCGGTCTCCC
# DNA 2: TGGTGGCTACGACGGGATT
# B26: CUAUUAA (DNA:RNA)
# RNA: B1 RNA with G26U, G27A, A28U, C29U, U30A, C31A
# DNA 1: CAATCTGAATTCCGGTCTCCC
# DNA 2: TGGTGGCTACGACGGGATT
# B27: CAAAGUU (DNA:RNA)
# RNA: B1 RNA with G26A, G27A, C29G, C31U
# DNA 1: CAATCTGAATTCCGGTCTCCC
# DNA 2: TGGTGGCTACGACGGGATT
# B28: UACUUCC (DNA:RNA)
# RNA: B5 RNA with C26A, U27C, A29U, G30C, G31C
# DNA 1: CAATCTGAATTCCGGTCTCCC
# DNA 2: TGGTGGCTACGACGGGATT
# B29: GCGGGGU (DNA:RNA)
# RNA: B5 RNA with U25G, U27G, U28G, A29G, G31U
# DNA 1: CAATCTGAATTCCGGTCTCCC
# DNA 2: TGGTGGCTACGACGGGATT
# B30: GUUGAUG (DNA:RNA)
# RNA: B5 RNA with U25G, C26U, U28G, G30U
# DNA 1: CAATCTGAATTCCGGTCTCCC
# DNA 2: TGGTGGCTACGACGGGATT
# B31: GCUUUCG (DNA:RNA)
# RNA: B5 RNA with U25G, A29U, G30C
# DNA 1: CAATCTGAATTCCGGTCTCCC
# DNA 2: TGGTGGCTACGACGGGATT
# Target: T1, RBFOX1 RRM RbFoxmut (Fox-RRM*) (Homo sapiens, UniProt Q9NWB1 109-208, R118D;E147R;N151S;E152T)
# T1 sequence: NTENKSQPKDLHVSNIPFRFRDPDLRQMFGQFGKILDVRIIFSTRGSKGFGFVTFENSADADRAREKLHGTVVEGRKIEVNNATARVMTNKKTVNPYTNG
# Assay: EMSA; HiTS-Eq, 1 nM pool, 10 min; buffer printed only for the single-RNA assays: 10 mM Tris pH 7.5, 150 mM NaCl, 3.4 mM EDTA, 0.001% NP-40, 30 C
# Details: tags: His6 N-terminal (pET28a); label: 5' 32P
# How it was run: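 Relative association constants, normalised to the cognate motif, were derived by comparing read counts of each RNA species with those of the control reaction. The RNA sequenced was the free fraction, separated by 8% native PAGE after a 10 min equilibration in 50 µL of 1 nM 5′-radiolabelled RNA (7 randomized nucleotides) with increasing concentrations of purified wild-type or mutant RbFox RRM.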
row,Binder,binding signal
1,B1,0.112 KA relative to UGCAUGU
2,B2,0.27 KA relative to UGCAUGU
3,B3,0.0795 KA relative to UGCAUGU
4,B4,0.103 KA relative to UGCAUGU
5,B5,0.098 KA relative to UGCAUGU
6,B6,0.044 KA relative to UGCAUGU
7,B7,0.0524 KA relative to UGCAUGU
8,B8,0.144 KA relative to UGCAUGU
9,B9,0.173 KA relative to UGCAUGU
10,B10,0.0684 KA relative to UGCAUGU
11,B11,0.13 KA relative to UGCAUGU
12,B12,0.0769 KA relative to UGCAUGU
13,B13,0.0843 KA relative to UGCAUGU
14,B14,0.0926 KA relative to UGCAUGU
15,B15,0.108 KA relative to UGCAUGU
16,B16,0.14 KA relative to UGCAUGU

row,Binder,binding signal
1,B17,0.12 KA relative to UGCAUGU
2,B18,0.195 KA relative to UGCAUGU
3,B19,0.0864 KA relative to UGCAUGU
4,B20,0.102 KA relative to UGCAUGU
5,B21,0.0833 KA relative to UGCAUGU
6,B22,0.147 KA relative to UGCAUGU
7,B23,0.111 KA relative to UGCAUGU
8,B24,0.0742 KA relative to UGCAUGU
9,B25,0.103 KA relative to UGCAUGU
10,B26,0.0805 KA relative to UGCAUGU
11,B27,0.0713 KA relative to UGCAUGU
12,B28,0.0793 KA relative to UGCAUGU
13,B29,0.129 KA relative to UGCAUGU
14,B30,0.225 KA relative to UGCAUGU
15,B31,0.082 KA relative to UGCAUGU
